# Source: PubChem BioAssay AID686979 (National Center for Advancing Translational Sciences (NCATS), 2013)
# Several values for one entry are separate records, joined by “and”; a condition that tells them apart may be missing. Equal values may be shown once. About 50,000 (12%) of roughly 420,000 compounds were called active. Inconclusive means that the source gave no clear call. Such entries were picked first, then a sample of the others. Calls come from the whole dose curve; as a rule, active = well fitted inhibition curve with a large enough effect; inconclusive = small, poorly fitted or top-dose-only effect; inactive = flat fitted curve, though single readings scatter. Potencies of inconclusive entries are doubtful fits and often do not repeat.
# Assay: qHTS for Inhibitors of human tyrosyl-DNA phosphodiesterase 1 (TDP1): qHTS in cells in presence of CPT; note: nearly all actives have a fitted effect of over 55% in size
# Conditions: chicken DT40 Tdp1-/-;hTDP1 cells + 20 nM CPT, ATP luminescence, 48 h; activity change, negative = growth inhibition: at 46.2 µM (top of the series) unless noted
# Procedure, shortened: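 Cell growth measured by CellTiter-Glo luminescence after a minimum 48 h, 37 C compound exposure with 20 nM CPT in Tdp1-knockout DT40 cells stably expressing hTDP1, seeded 400/well; qHTS titration format.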
# % is set by controls: 0 for no effect and ±100 for the full control effect; potency is the fitted concentration of half-maximal effect; tags give direction and shape of the fitted curve.
SMILES,Potency,"activity change, negative = growth inhibition"
N#Cc1ccccc1S(=O)(=O)N1CCN(C(=O)C2CCCC2)CC1,inactive,
COc1ccc(S(=O)(=O)NCc2cccn2Cc2cccc(C)c2)cc1Cl,"inconclusive: 0.0058 µM [inhibitor, full curve, poor fit]",
CCO[C@H]1OC(C(=O)Nc2ccccc2)=C[C@@H](C)[C@@H]1CCCO,inactive,
C[C@H]1CN([C@@H](C)CO)C(=O)CCCn2nncc2CO[C@H]1CN(C)S(=O)(=O)c1ccc(Oc2ccccc2)cc1,active: 18.4 µM,
COc1ccc(-c2nc(SCC(=O)Nc3ccccc3)c(-c3ccc(F)cc3)[nH]2)cc1OC,"inconclusive: 29.1 µM [inhibitor, single point]",
CC(=O)c1cc(OC(=O)N2CCOCC2)ccc1OC(=O)N1CCOCC1,inactive,
CCc1cccc(C)c1NC(=O)C(CC)n1nc(C)c2c(C)n(-c3ccccc3)nc2c1=O (stereo not drawn),inactive,
CCCC(=O)Nc1ccc(NC(=O)c2cc3ccccc3o2)c(OC)c1,"inconclusive: 2.06 µM [inhibitor, single point]",
COc1ccc(OC)c(S(=O)(=O)N2Cc3ccccc3CC2C(=O)Nc2ccc(C)cc2C)c1 (stereo not drawn),"inconclusive: 29.1 µM [inhibitor, single point]",
CCCCCCNC(=O)O[C@H]1Cn2c(=O)ccc(=O)n2[C@@H]2CN(S(=O)(=O)c3ccc(C)cc3)C[C@]12O,active: 4.61 µM,
CCS(=O)(=O)N1CCc2cc(C(=O)N3CCN(c4ccc(OC)cc4)CC3)ccc21,"inconclusive: 23.1 µM [inhibitor, single point]",
CC(C)(C)c1cc(C(=O)N/N=C/c2ccc([N+](=O)[O-])s2)n[nH]1,active: 9.2 µM,
COc1ccccc1NC(=O)c1cc2c(CO)cnc(C)c2oc1=Nc1cccc(C(N)=O)c1,active: 5.17 µM,
Cc1ccc(NC(=O)Cn2c(=O)cnc3ccccc32)cc1S(=O)(=O)N(C)C,"inconclusive: 18.4 µM [inhibitor, single point]",
COc1ccc(S(=O)(=O)N(C)[C@H]2C[C@H]3c4cc(Oc5ccccc5C)ccc4CCN3C(=O)[C@H]2[C@H](C)O)cc1,active: 9.2 µM,
Cc1c(CCOC(=O)CC23CC4CC(CC(C4)C2)C3)sc[n+]1CC(=O)c1ccc(Br)cc1,"inconclusive: 16.4 µM [inhibitor, single point]",
CCOC(=O)C1=C(COC(=O)C2(C)CC2(Cl)Cl)NC(=O)NC1c1ccc(OC)cc1 (stereo not drawn),"inconclusive: 8.2 µM [inhibitor, partial curve]",
COC(=O)c1ccc(COc2ccccc2/C=C(\C#N)C(=O)Nc2c(C)cccc2C)cc1,active: 13 µM,
CCOC(=O)c1ccccc1NC(=O)CSc1nc2ccccc2n1CC(=O)N1CCCC1,"inconclusive: 16.4 µM [inhibitor, single point]",
CCC(C)(C)NC(=O)CN(Cc1ccc2c(c1)OCO2)C(=O)CCC(=O)Nc1cc(C)ccn1,inactive,
COc1ccc(-c2csc(NC(=O)CN3C(=O)C4CC=CCC4C3=O)n2)cc1OC (stereo not drawn),"inconclusive: 20.6 µM [inhibitor, single point]",
CCOC(=O)c1cnc2c(c(C)nn2C)c1Oc1cc(Cl)cc(Cl)c1,"inconclusive: 25.9 µM [inhibitor, single point]",
O=C(c1cc(-c2cccc(Cl)c2)nc2ccccc12)N1CCN(c2ccccn2)CC1,"inconclusive: 29.1 µM [inhibitor, single point]",

SMILES,Potency,"activity change, negative = growth inhibition"
CC(C)[C@H](NC(=O)N1CC(=O)Nc2ccccc21)C(=O)N[C@H](Cc1ccccc1)C(=O)O,inactive,
COCCn1c(SCC(=O)Nc2ccc(S(N)(=O)=O)cc2)nc2ccccc21,inactive,
Cc1ccc(N/C=C/C(=O)c2ccco2)c(O)c1,inactive,
CCOC(=O)c1cc(Cl)c2c(ccc3ccccc32)n1,inactive,
CCOC(=O)c1cc(-c2ccc(OC)c(S(=O)(=O)NC3CCCCC3)c2)on1,inactive,
Cc1ccccc1-n1c(SCC(=O)c2cc(C)n(C)c2C)nnc1-c1cccnc1,"inconclusive: 20.6 µM [inhibitor, single point]",
COc1cccc(/C=C2/SC(=S)N(CC(=O)Nc3nccs3)C2=O)c1,inactive,
Cc1cc(C)c(NC(=O)CCN2CCN(Cc3ccccc3)CC2)c(C)c1,"inconclusive: 16.4 µM [inhibitor, single point]",
Cc1cccc(/C=C/c2nc3ccccc3c(=O)n2Cc2ccccc2)c1,"inconclusive: 29.1 µM [inhibitor, single point]",
COc1ccccc1N(CC(=O)N1CCC(C)CC1)S(=O)(=O)c1ccc(C)cc1,"inconclusive: 18.4 µM [inhibitor, single point]",
COc1ccc(/C=C/C(=O)c2ccoc2)cc1,"inconclusive: 16.4 µM [inhibitor, single point]",
CCN(C(=O)Cn1nc(Cc2ccncc2)c2ccccc2c1=O)c1cccc(Cl)c1,"inconclusive: 20.6 µM [inhibitor, single point]",
COC(=O)c1ccc(NC(=O)C2CCN(C(=O)c3cc(OC)c(OC)c(OC)c3)CC2)cc1,"inconclusive: 13 µM [inhibitor, partial curve]",
COc1ccc(NC(=O)CN(C)C(=O)c2cc(C)on2)cc1,inactive,
Cc1ccc(-c2nc(SC(C)C(=O)c3c(N)n(C)c(=O)n(C)c3=O)n[nH]2)cc1 (stereo not drawn),"inconclusive: 29.1 µM [inhibitor, single point]",
COc1ccc(CNC(=O)C(C)N(Cc2ccccc2OC)C(=O)c2snc(C(N)=O)c2N)cc1 (stereo not drawn),"inconclusive: 23.1 µM [inhibitor, single point]",
O=C(CCc1nc(-c2ccccc2F)no1)NCc1ccco1,inactive,
CCc1ccc(Cn2c(CNS(=O)(=O)c3ccc([N+](=O)[O-])cc3)nc3cccnc32)cc1,"inconclusive: 29.1 µM [inhibitor, single point]",
O=S(=O)(Nc1cccc(-c2ccc3nncn3n2)c1)c1ccc(Cl)s1,inactive,
Cc1cc(C)c(-n2c(SCC(=O)N3CCOCC3)n[nH]c2=O)c(C)c1,inactive,
O=C(Nc1ccc2nc3n(c(=O)c2c1)CCCCC3)C(=O)Nc1ccccc1F,"inconclusive: 29.1 µM [inhibitor, single point]",
COc1cc(NC(=O)c2nn(C)c3c2CS(=O)(=O)c2ccccc2-3)cc(OC)c1,"inconclusive: 29.1 µM [inhibitor, single point] and inconclusive: 16.4 µM [inhibitor, single point]",
Cc1csc2ncc(C(=O)N(Cc3ccccc3)c3ccccn3)c(=O)n12,"inconclusive: 29.1 µM [inhibitor, single point]",

SMILES,Potency,"activity change, negative = growth inhibition"
CC(C)c1ccc(/C=c2\sc3n(c2=O)C(N)=C(C#N)C(c2ccc(C(C)C)cc2)C=3C(N)=O)cc1 (stereo not drawn),active: 5.8 µM,
CCCN1CCN(CCCNC(=O)c2cc3c(=O)[nH]c4ccc(C)cc4c3s2)CC1,"inconclusive: 29.1 µM [inhibitor, single point]",
CCn1nc(C)c(CCN(C)C(=O)Nc2ccc(C)c(Cl)c2)c1C,"inconclusive: 18.4 µM [inhibitor, partial curve]",
COCCNC(=O)c1ccc(-n2c(-c3ccccc3)cc3c2CCC(C)C3)cc1 (stereo not drawn),"inconclusive: 20.6 µM [inhibitor, single point]",
CCOC(=O)c1[nH]nc(-c2cc(CC)c(O)cc2O)c1-c1cscn1,"inconclusive: 20.6 µM [inhibitor, single point]",
Cc1ccc(C(=O)NCc2ccc3c(c2)CCN3C(=O)c2ccc(C)cc2)cc1,active: 20.6 µM,
CCCc1sc(N/N=C/c2ccccn2)nc1-c1ccc(F)cc1,active: 4.61 µM,
O=C(NC(=S)Nc1ccc(CN2CCOCC2)cc1)c1ccc(-c2ccc(Cl)cc2)o1,"inconclusive: 29.1 µM [inhibitor, single point]",
CCc1c(C)nc2ncnn2c1Nc1ccccc1C,"inconclusive: 14.6 µM [inhibitor, partial curve]",
COc1ccc(C(=O)N2CCC(C(=O)c3ccc(F)cc3)CC2)cc1,"inconclusive: 16.4 µM [inhibitor, single point]",
C=CCNC(=S)Nc1ccc2cn[nH]c2c1,,inconclusive: -33.4% [inhibitor]
COc1cccc2c1OCC(CN1CCN(Cc3ccccc3)C(CCO)C1)=C2 (stereo not drawn),"inconclusive: 23.1 µM [inhibitor, single point]",
CC1CCCCC12NC(=O)N(CC(=O)OCc1ccccc1Cl)C2=O (stereo not drawn),"inconclusive: 29.1 µM [inhibitor, single point]",
COc1ccccc1NC(=O)CSc1nnc(C2CCCCC2)n1-c1ccccc1,active: 20.6 µM,
OC[C@@H]1CN(Cc2ccc(Cl)cc2)C[C@H](n2cnc3c(NCc4ccco4)ncnc32)O1,"inconclusive: 29.1 µM [inhibitor, single point]",
O=C(COC(=O)COc1ccccc1)Nc1ccc(Br)cc1Br,inactive,
CCCCCCCCN1C(=O)[C@H](CC(=O)NCCCN2CCCC2=O)C[C@@]2(C(=O)OCC)CCCC=C12,"inconclusive: 29.1 µM [inhibitor, single point]",
Cc1nc(-c2nnc(SCC(=O)Nc3ccc(C(F)(F)F)cc3)n2C)cs1,inactive,
CCOC(=O)CSC1=C(C#N)C(c2ccc(F)cc2)C(C(C)=O)=C(C)N1 (stereo not drawn),inactive,
NC(=O)C1CCN(CC(O)CSc2ccc(F)cc2)CC1 (stereo not drawn),inactive,
CCCCN(C=O)c1c(CC)nc2c(OCc3ccccc3C(=O)OC)cccn12,active: 13 µM,
C[C@@H](NC(=O)c1nc[nH]c1C(=O)NCC(=O)OCc1ccccc1)c1ccccc1,inactive,
